Values marked as one replicate rest on one cluster of the flow cell; about a third of the high ones do not repeat.
test system: ATP; assay: switch fluorescence ratio, 500 uM ATP over buffer (Cy3 cluster intensity, sum of 5 cycles each) (fold (ratio)); higher = stronger signal-on switching upon ATP binding; sequences stand for … in TCGTCGGCAGCGTCAGATGTGTATAAGAGACAGTTTTTTTTTTTTTTTTTTTTTTTTT…TC; settings: aptamer strand: ATP DNA aptamer (quencher-CACCTGGGGGAGTATTGCGGAGGAAGG + anchor), 100 nM annealed; ATP concentration: 500 uM; one replicate
Procedure, shortened: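 Cy3-labelled switching-strand clusters on a modified Illumina MiSeq flow-cell were annealed to 100 nM quencher-labelled ATP aptamer and imaged first in selection buffer, then after 15 min with 500 uM ATP at 22 °C. NaOH stripping and re-annealing separated each of five buffer/ATP cycles, and clusters outside 100-1000 RFU were excluded. The fluorescence ratio sums target-cycle Cy3 intensity over buffer-cycle Cy3 intensity per cluster and averages it per switch-domain sequence.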
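Also: ATP exposure 15 min at 22 °C before imaging.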

Sequence | switch fluorescence ratio
CCGGTAGAAC | 1.25
CCGGTCCGCT | 2.44
CCGGTCCGGT | 1.03
CCGGTCTAGG | 1.05
CCGGTGTGTG | 0.959
CCGGTTAAGA | 1.02
CCGGTTAATC | 1.7
CCGGTTCCGC | 1.3
CCGGTTTTTC | 1.1
CCGTAAGACC | 1.06
CCGTACTCGA | 1.48
CCGTACTTTT | 1.06
CCGTAGATCT | 1.17
CCGTAGCTCG | 1.84
CCGTCAGAAC | 3.28
CCGTCAGTAT | 3.37
CCGTCCTAGT | 1.06
CCGTCTTATA | 1.06
CCGTGAATTA | 1.13
CCGTGAGATC | 0.998
CCGTGCAGGG | 1.09
CCGTGCCCTG | 1.05
CCGTGTGTTT | 1.03
CCGTTACAGG | 1.23
CCGTTAGTTG | 1.06
CCGTTATCGA | 1.22

Sequence | switch fluorescence ratio
CCGTTATGAT | 1.07
CCGTTCCTGT | 1.05
CCGTTCGGCG | 0.993
CCGTTCTCAG | 1.17
CCGTTGCGTC | 1.18
CCGTTGGCGA | 1.78
CCGTTGTAGG | 1.04
CCGTTTTTGA | 1
CCTAAAGTT | 1.1
CCTAACAGCT | 1.1
CCTAACGGCC | 1.07
CCTAAGCGAT | 3.53
CCTACACGGG | 1.08
CCTACATATC | 1.56
CCTACGGCCT | 1.52
CCTACGGGCT | 1.44
CCTACGTTGT | 3.66
CCTACTTATG | 1.02
CCTAGAATGA | 0.972
CCTAGACTGA | 1.01
CCTAGCGAAA | 1.43
CCTAGGAAGT | 0.967
CCTAGGGCTG | 1.02
CCTAGGTACA | 1.1
CCTAGTGAGC | 1.05
CCTATACCGC | 2.4

Sequence | switch fluorescence ratio
CCTATAGTTG | 1.03
CCTATCGGG | 1
CCTATTGGAT | 1.01
CCTATTTCAA | 1.1
CCTCAAATCT | 1.45
CCTCAGGGTA | 1.49
CCTCAGTACG | 1.59
CCTCATGGGC | 3.63
CCTCATGGGT | 1.06
CCTCGACCAC | 2.76
CCTCGAGAGG | 1
CCTCGATGTT | 1.02
CCTCTGATTG | 1.26
CCTCTTTGTG | 1.06
CCTGAAAGCT | 1.26
CCTGAAGGTT | 1.04
CCTGACAAAA | 1.14
CCTGACGTG | 1.11
CCTGAGCAGG | 1.17
CCTGATGCCA | 1.01
CCTGATTAGG | 0.988
CCTGCAACCG | 1.72
CCTGCCCAGA | 1.36
CCTGCCGCCG | 2.07
CCTGCCGGAT | 1.07

From the supplement of paper PMC10126150
